Test results from PubChem BioAssay AID493208 (National Center for Advancing Translational Sciences (NCATS), 2011).
The campaign covered roughly 44,000 compounds. About 340 (0.77%) were called active. Not shown: some 5% with an inconclusive outcome. The call rests on the fitted dose curve; in most records, active means well fitted inhibition curve with a large enough effect; inconclusive means small, poorly fitted or top-dose-only effect; inactive means flat fitted curve, though single readings scatter. The list shows a part of the results.

Test: Acumen qHTS Assay for Inhibitors of the mTORC1 Signaling Pathway in MEF (Tsc2-/-, p53-/-) Cells: Sytravon;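 further: plate controls were DMSO for no effect and rapamycin for full effect; nearly all actives have a fitted effect of over 50% in size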
Conditions: phospho-rpS6 immunofluorescence/PI, 24 h; series mostly up to 38.3 µM; activity change, negative = inhibition: at the top concentration
In short: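 Plate MEFs (Tsc2-/-, p53-/-, empty vector) in DMEM/10% FBS; after 24 h add compound, incubate 24 h at 37 degree Celsius; fix in PFA/TX-100, block, stain phospho-rpS6 and 10 uM PI; scan at 488 nm; report % positive cells.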

Activity change, negative = inhibition, inactive:
Cc1cccc(C)c1NC(=O)Cn1c(=O)n(Cc2ccco2)c(=O)c2ccc(C(=O)NC3CCCC3)cc21 -0.72%
CC1Cc2cc(S(=O)(=O)CCC(=O)Nc3ccc(F)c(Cl)c3)ccc2N1C(=O)C1CC1 (stereo not given) -5.96%
O=C(CCn1c(=O)c2sccc2n(Cc2cccc(F)c2)c1=O)NCc1ccc2c(c1)OCO2 6.69%
COc1ccc(-n2c3c(cc(-c4nc(-c5ccc(Cl)cc5)cs4)c2=O)C(=O)CC(C)(C)C3)cc1 -16.4%
COc1ccc(NC(=O)c2sc3nc4n(c(=O)c3c2C)CCC4)cc1Cl 6.99%
Cc1ccc2scc(N3CCN(c4ccc(F)cc4)CC3)c(=O)c2c1 -6.63%
COc1ccc(CCNC(=O)c2ccc3c(c2)N(Cc2cccc(Cl)c2)C(=O)CS3)cc1OC 0%
COc1ccc(C2c3c(n(C)c4ccccc34)C(=O)N2CC(=O)Nc2ccccc2F)cc1 (stereo not given) -18.5%
CCOc1ccc(C(c2c(O)cc(C)n(CCOC)c2=O)N2CCC(C)CC2)cc1 (stereo not given) 1.56%
O=C(NCc1ccc(Cl)cc1)c1cnc2sc(N3CCCC3)nn2c1=O 2.23%
O=C(CC1N=C2c3ccccc3N=C(SCc3ccccc3F)N2C1=O)NCc1ccc2c(c1)OCO2 (stereo not given) -3.48%
COc1ccc(Cl)cc1NC(=O)CN(c1cccc(C)c1C)S(=O)(=O)c1ccccc1 3.72%
COc1cc(C)ccc1OCCn1c(-c2ccc(Cl)cc2)nc2ccccc2c1=O -6.28%
COc1ccc2c(c1)sc1ncc(C(=O)NCc3cccc(Cl)c3)c(=O)n12 -4.31%
Cc1ccc(CCNC(=O)c2ccc(CSCc3ccccc3Cl)o2)cc1 4.97%
CCOc1ccc(NC(=O)Cn2c(=O)oc3cc(S(=O)(=O)N4CCCCCC4)ccc32)cc1 -9.62%
Cc1ccc(N(C)S(=O)(=O)c2nnc(NC(=O)C3CCCCC3)s2)cc1 0.4%
CCc1ccc(CNC(=O)c2cc(-c3ccc(Cl)s3)nc3ccccc23)cc1 15.9%
O=C(Cc1ccc(NC(=O)N2CCSc3ncccc32)cc1)NCCc1ccccc1 -0.575%
CCOC(=O)N1CCc2c(sc3c2c(=O)n(-c2ccc(CC)cc2)c(=O)n3CC(=O)Nc2ccc(C)cc2)C1 0.273%
CCNc1ccc(-c2nc(-c3ccco3)no2)cc1[N+](=O)[O-] -16.3%
CCOc1ccc(CNC(=O)c2ccc3c(c2)c(C)c(C)n3Cc2ccc(Cl)cc2)cc1 3.63%
CN(C)S(=O)(=O)n1cc(/C=C(\NC(=O)c2ccccc2)C(=O)NCCCn2ccnc2)c2ccccc21 0.0857%
O=C(NCCOCCn1c(=O)oc2ccccc21)Nc1ccc(Cl)cc1 0.512%
Cc1ccccc1NC(=O)c1c(NC(=O)Cc2ccccc2)sc2c1CCC2 3.33%
Cc1cc(C)c(NC(=O)c2cc(S(=O)(=O)N3CCN(c4ccccc4F)CC3)ccc2F)c(C)c1 -0.844%
COc1ccc(N2CC(NC(=O)CCc3ccccc3)CC2=O)cc1OC (stereo not given) -0.932%
Cc1ccc2oc(=O)n(CCCOc3ccc(Cl)cc3)c2c1 1.53%
CCOC(=O)c1ccccc1NC(=O)N1CCC(N2CCN(Cc3ccccc3)C(=O)C2=O)CC1 0.384%
COc1cc(OC)c(Nc2nc3ccccc3nc2-n2nc(C)cc2C)cc1Cl 0.11%
O=C(Cn1c(=O)n(CC2CCCO2)c(=O)c2ccccc21)Nc1cccc(Cl)c1 (stereo not given) 6.99%
COC(=O)c1scc(-c2ccc(C)cc2)c1S(=O)(=O)N1CCN(c2ccc(OC)cc2)CC1 -4.53%
CCS(=O)(=O)N1CCc2cc(C(=O)NCc3ccccc3)ccc21 -2.59%
Cc1ccc(-c2nc3nc(C)cc(Nc4ccccc4O)n3n2)cc1 -4.79%
COc1cc(OC)c(NS(=O)(=O)c2cc(-c3cnc(C)o3)ccc2OC)cc1Cl -8.67%
COCCCNc1nc2c(S(=O)(=O)c3ccc(C)c(C)c3)nnn2c2ccc(Cl)cc12 0.215%
Cc1ccc(NC(=O)CN2C(=O)CCn3nc(-c4cccn4C)cc32)cc1 2.23%
Cc1ccc2oc(-c3cc(NC(=O)c4ccco4)ccc3Cl)nc2c1 15.5%
CSc1ncc(C(=O)Nc2ccc(F)cc2F)c(-c2ccccc2)n1 1.05%
CCCC1=Nc2cc(C(=O)NCCc3ccc(OC)cc3OC)ccc2Sc2ccccc21 -13.3%
Cc1ccc(CNC(=O)c2nn(C)c3c2CS(=O)(=O)c2ccccc2-3)cc1 10.6%
CCC(=O)N1c2ccccc2CC1C(=O)NCCc1ccc(C)cc1 (stereo not given) 0%
Cc1cn(C)c(CC(=O)NCc2ccccc2Cl)c1C(=O)O -4.1%
COc1ccc(-n2nc(C(=O)N3CCN(c4cccc(C)c4C)CC3)c3c4ccccc4n(C)c3c2=O)cc1 -0.391%
O=C(CSCc1nc2cccnc2n1C1CCCCC1)NCc1cccc(Cl)c1 3.52%
CCC(C)OC(=O)/C(C#N)=C\c1ccc(-c2ccccc2Cl)o1 (stereo not given) 5.56%
O=C(Nc1nc2nc(-c3ccccc3)cc(=O)n2[nH]1)c1ccc(Cl)cc1 3.61%
CNC(=O)COc1ccc(NC(=O)CCn2nc(-c3ccc(C)cc3)c3ccccc3c2=O)cc1 -0.807%
CCOc1ccc(N(CC(=O)NCc2ccc(C)cc2)S(=O)(=O)c2c(C)noc2C)cc1 -3.38%
O=C(c1ccc(CSc2nc3ccncc3n2Cc2cccc(F)c2)cc1)N1CCCCC1 0.868%
CCOC(=O)c1c(C)oc2ccc(N(C(=O)c3ccncc3)S(=O)(=O)c3ccc(Br)cc3)cc12 -2.54%
CC1=C(c2ccc(C(C)C)cc2)S(=O)(=O)NC1=NCc1ccccc1Br 5.94%
CNC(=O)C1CCC(Cn2c(=O)c3sccc3n(CC(=O)Nc3ccc(C)c(F)c3)c2=O)CC1 (stereo not given) -6.55%
COc1ccc(C)cc1NC(=O)C1CCCN(S(=O)(=O)c2ccc3[nH]c(=O)ccc3c2)C1 (stereo not given) -2.99%
COc1cc(NC(=O)CN2C(=O)CN(C)C(=O)c3ccccc32)cc(OC)c1OC 2.04%
CCOc1cc2[nH]c(=O)n(CCCC(=O)N3CCN(c4ccc(OC)cc4)CC3)c(=O)c2cc1OCC -4.32%
CCOC(=O)c1c(C)[nH]c(C)c1S(=O)(=O)N1CCC(C(=O)Nc2ccc(C)cn2)CC1 2.8%
CCOc1ccc(CCNC(=O)Cn2ncc3c(=O)oc4ccc(C)cc4c32)cc1 11.2%
CCn1c2ccccc2c2cc(NC(=O)COc3cccc(C)c3)ccc21 -10.7%
COc1ccc(OC)c(NS(=O)(=O)c2ccc3[nH]c4c(c3c2)CCCCC4)c1 -7.76%
